# Source: publication PMC5951580, “The effect of acylation with fatty acids and other modifications on HLA class II:peptide binding and T cell stimulation for three model peptides” (PLoS ONE, 2018)
# Tested on: 26 HLA class II molecules (HLA DRB1, DRB3/4/5, DP and DQ allelic variants)
# Assay: Competition binding of peptides to purified HLA class II molecules (inhibition of a radiolabeled peptide)
# Details: binding = IC50 of 1000 nM or better, two-day incubation, three or more independent experiments
substance,measurement,value
"Peptide 7: Exendin-4 (1–39), 39-aa peptide used for the treatment of diabetes mellitus type 2, non-acylated [reference compound]",Number of HLA class II alleles bound (of 26 tested),seven
